Laboratory results: patent US7811578B2, “Soluble chimeric peptide inhibitors of HIV entry comprising an IZ trimeric coiled-coil peptide and HIV gp41 N-helix coiled-coil peptide” (Whitehead Institute for Biomedical Research, dated 2010)

Target: HIV-1 HXB2 gp41 (from the HXB2 gp160 gene), on single-round luciferase virus (HIV-1 (HXB2))
Assay: cell-based or functional assay

For RMKQIEDKIEEIESKQKKIENEIARIKKLIGERY (N-terminal acetyl, C-terminal amide) [GCN4-pIQI′], the “IC50 (nm), viral infectivity (HIV luciferase assay)” value was greater than 10 µM.
